Source: PubChem BioAssay AID624296 (National Center for Advancing Translational Sciences (NCATS), 2012)
The whole screen tested about 350,000 compounds, of which about 9,900 (2.8%) were called active. The shares of active, inactive and inconclusive entries below differ from those in the screen. Calls follow the shape of the dose curve; as a rule, active = well fitted activation curve with a large enough effect; inconclusive = small, poorly fitted or top-dose-only effect; inactive = no such curve, though single readings can be large or run the other way. Potencies of inconclusive entries are left out as doubtful fits.
Potency is read from the fitted curve at half-maximal effect; tags tell the direction and shape of the fitted curve.

Test: A quantitative high throughput screen for small molecules that induce DNA re-replication in MCF 10a normal breast cells. Also: nearly all actives have a fitted effect of over 50% in size.
Settings: MCF 10A DNA re-replication, Hoechst nuclear intensity, 48 h; series mostly up to 46.1 µM
In the case of `COc1ccc(/C=C2\SC(=S)N(CCCC(=O)N3CCOCC3)C2=O)cc1`, the Potency was inconclusive [activator, single point]. For `Brc1ccc2nc(N3CCN(c4ccccc4)CC3)sc2c1`, the Potency was “inactive”. In the case of `CCCCC(c1nnnn1Cc1ccco1)N1CCN(c2nc3ccccc3s2)CC1` (stereo not drawn), the Potency was inconclusive [activator, full curve, poor fit]. In the case of `Cc1ccc2c(n1)sc1c(-c3ccc(Br)cc3)c(C#N)c(N)nc12`, the Potency was inconclusive [activator, full curve, poor fit]. For `O=[N+]([O-])c1cccc(C2Nc3cccc4cccc(c34)N2)c1`, the Potency was inconclusive [activator, partial curve, poor fit]. For `Nc1cc2sc(-c3ccc(C(=O)O)cc3)nc2cc1Cl`, the Potency was inconclusive [activator, single point]. With `FC(F)(F)c1nc(-c2cccs2)ncc1-c1nnnn1-c1ccc(Cl)cc1` the Potency was active: 6.51 µM. With `COc1ccc(OC)c(-n2c(SCC(=O)NCC3CCCO3)nc3ccccc3c2=O)c1` (stereo not drawn) the Potency was “inactive”. In the case of `c1ccc(-c2nc(N3CCOCC3)c3ccccc3n2)nc1`, the Potency was inconclusive [activator, partial curve, poor fit]. For `COc1ccc(N(C(=O)c2cccc(OC)c2OC)C2C=CS(=O)(=O)C2)cc1` (stereo not drawn), the Potency was inconclusive [activator, single point]. In the case of `CCCCn1c(N)c(N(Cc2ccccc2OC)C(=O)C(C)C)c(=O)[nH]c1=O`, the Potency was inconclusive [activator, single point]. With `Cc1ccc(OCCSc2nc3ncnc(N)c3[nH]2)cc1` the Potency was inconclusive [activator, single point]. In the case of `CC(C)[C@H](NC(=O)OCc1ccccc1)C(=O)OCC(=O)NC1CCCCC1`, the Potency was inconclusive [activator, partial curve, poor fit]. With `O=C(CCCOc1ccc(Cl)cc1Cl)NCCc1ccccn1` the Potency was “inactive”. In the case of `Cc1cccc(NC(=S)NCc2ccco2)c1C`, the Potency was “inactive”. For `CCOC(=O)CSc1nc(N)c(C#N)c(-c2cccs2)c1C#N`, the Potency was “inactive”. With `COC(=O)c1cc(C)nc2c1C(=O)C(=O)C=C2N1CCOCC1` the Potency was inconclusive [activator, partial curve, poor fit]. In the case of `CCN(CC)S(=O)(=O)c1cc(NS(=O)(=O)c2cccc(Cl)c2)ccc1C`, the Potency was inconclusive [activator, partial curve, poor fit]. With `COc1ccc(-c2nc3c(Br)c(N)c(Br)cc3o2)cc1` the Potency was inconclusive [activator, single point]. For `CN(CC(=O)Nc1ccccc1Br)CC(=O)NC(c1ccccc1)c1ccccc1`, the Potency was “inactive”. With `COc1cccc(N2C(=O)C3CCCN3C2=S)c1` (stereo not drawn) the Potency was inconclusive [activator, full curve, poor fit]. For `CN1C2CCC1CC(NC(=O)CSCc1ccc(Cl)cc1Cl)C2` (stereo not drawn), the Potency was inconclusive [activator, partial curve]. For `O=C(OCC(=O)c1c[nH]c2ccccc12)c1cc2ccccc2cc1O`, the Potency was active: 11.6 µM. For `Cc1cc(C)nc(NS(=O)(=O)c2ccc(NC(=S)NC(=O)C(C)C)cc2)n1`, the Potency was inconclusive [activator, single point]. In the case of `O=C1C(Cl)=C(NCCc2ccccc2)C(=O)N1CCc1ccccc1`, the Potency was inconclusive [activator, single point]. With `CSc1ccc(CCNC(=O)CS(=O)(=O)Cc2nc(-c3ccccc3F)oc2C)cc1` the Potency was inconclusive [activator, single point]. In the case of `Cc1ccc(OCC(=O)N/N=C/c2cn[nH]c2-c2ccc(Cl)c(Cl)c2)cc1`, the Potency was inconclusive [activator, single point]. For `Cc1cccc(CC2CC(=O)N(C3CCCCC3)C2=O)c1` (stereo not drawn), the Potency was “inactive”. For `CCN1CCN(c2nc(S(=O)(=O)c3ccc(C)cc3)c(Cl)s2)CC1`, the Potency was inconclusive [activator, single point]. In the case of `CC(=O)c1ccc(OCCCC(=O)NCCc2ccccc2)cc1`, the Potency was “inactive”. With `CC(C)(C)OC(=O)N[C@@H](Cc1ccccc1)c1nnc(SCC(N)=O)o1` the Potency was “inactive”. In the case of `COc1ccc(C(=O)Nc2nnc(-c3ccc(F)cc3)s2)c(OC)c1`, the Potency was inconclusive [activator, single point]. With `CCCCN(CCCC)CP(=O)(c1ccccc1)c1ccccc1` the Potency was inconclusive [activator, partial curve]. In the case of `O=c1oc2ccccc2nc1/C=C(O)/C=C\c1ccccc1`, the Potency was inconclusive [activator, single point]. With `CC1(C)CC(=O)C(C=NCCCN2CCCC2=O)=C(O)C1` the Potency was inconclusive [activator, single point]. In the case of `CC(=O)CCc1oc2ccc(C)cc2c1Cc1ccccc1`, the Potency was inconclusive [activator, partial curve, poor fit]. With `C/C(N)=C(/C#N)C(=O)COc1ccc(Cl)cc1Cl` the Potency was inconclusive [activator, single point]. In the case of `CC(C)CC(NC(=O)C(NC(=O)C(Cc1ccc(OCc2ccccc2)cc1)NC(=O)OC(C)(C)C)C(C)C)C(N)=O` (stereo not drawn), the Potency was inconclusive [activator, single point]. With `CCOc1ccc2ncc(S(=O)(=O)c3ccc(C)cc3)c(N3CCC4(CC3)OCCO4)c2c1` the Potency was inconclusive [activator, single point]. For `Cc1c(-c2ccc(Cl)cc2)[n+](=O)c(-c2ccccc2)cn1[O-]`, the Potency was inconclusive [activator, single point]. For `COc1cc(C(=O)NCCC(=O)NC2CCCCC2)cc(OC)c1OC`, the Potency was “inactive”. With `CCOC(=O)[C@H]1[C@H]2COc3ccc(Cl)cc3[C@@H]2N2C(=O)CN(Cc3ccc(OC)cc3)C(=O)[C@@]12C` the Potency was inconclusive [activator, partial curve, poor fit]. With `O=C(NCc1cccc(Cl)c1)c1ccc2nc[nH]c2c1` the Potency was inconclusive [activator, single point]. For `Cc1ccc(NC(=O)C2CC2C)c(Cl)c1` (stereo not drawn), the Potency was inconclusive [activator, full curve, poor fit]. For `Cc1ccc(NC(=O)CCC(=O)N/N=C/c2ccccc2O)cc1`, the Potency was “inactive”. With `CCCn1c(N)c(C(=O)COc2ccc(Br)cc2F)c(=O)n(C)c1=O` the Potency was inconclusive [activator, single point]. With `COc1ccc2cc1Oc1cc3c(cc1OC)CC[N+](C)(C)C3Cc1ccc(cc1)Oc1c(OC)c(OC)cc3c1C(C2)[N+](C)(C)CC3` (stereo not drawn) the Potency was “inactive”. With `Cc1ccc(NC(=O)C2CCN(S(=O)(=O)c3ccccc3)CC2)cc1` the Potency was “inactive”. For `CCOc1ccc(-n2nnnc2-c2nc3ccccc3s2)cc1`, the Potency was inconclusive [activator, partial curve, poor fit]. With `CC(C)(C)NC(=O)NC(=O)CN1CCCCC1` the Potency was inconclusive [activator, partial curve, poor fit]. In the case of `O=C1C=C(NCCc2ccccc2)C2(CCCCC2)O1`, the Potency was inconclusive [activator, partial curve, poor fit]. In the case of `CC1(C)CCSC(/C=C/c2ccccc2)=N1`, the Potency was inconclusive [activator, single point]. For `CCN(C(=O)c1ccc(NC(C)=O)cc1)c1ccccc1C`, the Potency was “inactive”. With `COc1ccc(C2=[N+](C)CCn3cccc32)c(OC)c1` the Potency was inconclusive [activator, partial curve, poor fit]. In the case of `N#C/C(=C/c1cc(Cl)c(O)c(Cl)c1)C(=O)N1CCCCC1`, the Potency was inconclusive [activator, single point]. With `Cc1cc([N+](=O)[O-])ccc1NS(=O)(=O)c1ccccc1` the Potency was inconclusive [activator, single point]. In the case of `S=C(NC1CCCCC1)NN(c1ccccc1)c1ccccc1`, the Potency was inconclusive [activator, single point]. With `COc1ccccc1NC(=O)COC(=O)COc1ccccc1F` the Potency was “inactive”. With `COc1ccc2[nH]c(=O)c(CN(CCCN(C)C)C(=O)Nc3ccccc3)cc2c1` the Potency was inconclusive [activator, partial curve, poor fit]. For `CC(=O)Nc1ccc(NC(=O)c2ccc(COc3ccccc3Br)o2)cc1`, the Potency was inconclusive [activator, single point]. With `Cc1ccccc1NC(=O)Cc1nnc(N)s1` the Potency was “inactive”. For `COc1cc2c(cc1OC)C(C)N(C(=O)[C@@H](NC(=O)c1ccccc1)C(C)C)CC2` (stereo partly drawn), the Potency was “inactive”. In the case of `CC(C)CN(C(=O)C(C)N1C(=O)c2ccccc2C1=O)c1c(N)n(Cc2ccccc2)c(=O)[nH]c1=O` (stereo not drawn), the Potency was “inactive”. In the case of `CC1=C(C(=O)Nc2cccc(C(=O)NC(C)c3ccccc3)c2)SCCO1` (stereo not drawn), the Potency was “inactive”. With `CCOC(=O)c1cnc2c(C)cccc2c1NCCc1ccc(OC)c(OC)c1` the Potency was “inactive”. For `Cn1ncc(Cl)c1C(=O)N1CCN(c2ccc(Cl)c(Cl)c2)CC1`, the Potency was inconclusive [activator, partial curve, poor fit]. In the case of `C#CCOCCOCCOCCNc1nc(N2CCN(C(=O)C(CCC(=O)O)n3cc(C(N)CC(C)C)nn3)CC2)nc(N2CCN(C(=O)C(Cc3cc4ccccc4[nH]3)n3cc(C(N)Cc4ccc(O)cc4)nn3)CC2)n1` (stereo not drawn), the Potency was inconclusive [activator, single point]. In the case of `CC(C)c1ccc(NC(=O)C2CCN(S(=O)(=O)c3ccc4c(c3)C(C)(C)C(=O)N4C)CC2)cc1`, the Potency was “inactive”.
